Test results as given in PMC4336329 (PLoS ONE, 2015).
Out of some 310,000 compounds screened, about 2,200 (0.71%) showed an effect of 50% or more. The effect is printed as a negative number. This is one part of the list.

biological target: human ether-à-go-go-related gene (hERG) potassium channel (human, UniProt Q12809); assay: primary screen, population patch clamp on CHO cells stably expressing hERG
Sequence (Q12809 whole entry, looked up): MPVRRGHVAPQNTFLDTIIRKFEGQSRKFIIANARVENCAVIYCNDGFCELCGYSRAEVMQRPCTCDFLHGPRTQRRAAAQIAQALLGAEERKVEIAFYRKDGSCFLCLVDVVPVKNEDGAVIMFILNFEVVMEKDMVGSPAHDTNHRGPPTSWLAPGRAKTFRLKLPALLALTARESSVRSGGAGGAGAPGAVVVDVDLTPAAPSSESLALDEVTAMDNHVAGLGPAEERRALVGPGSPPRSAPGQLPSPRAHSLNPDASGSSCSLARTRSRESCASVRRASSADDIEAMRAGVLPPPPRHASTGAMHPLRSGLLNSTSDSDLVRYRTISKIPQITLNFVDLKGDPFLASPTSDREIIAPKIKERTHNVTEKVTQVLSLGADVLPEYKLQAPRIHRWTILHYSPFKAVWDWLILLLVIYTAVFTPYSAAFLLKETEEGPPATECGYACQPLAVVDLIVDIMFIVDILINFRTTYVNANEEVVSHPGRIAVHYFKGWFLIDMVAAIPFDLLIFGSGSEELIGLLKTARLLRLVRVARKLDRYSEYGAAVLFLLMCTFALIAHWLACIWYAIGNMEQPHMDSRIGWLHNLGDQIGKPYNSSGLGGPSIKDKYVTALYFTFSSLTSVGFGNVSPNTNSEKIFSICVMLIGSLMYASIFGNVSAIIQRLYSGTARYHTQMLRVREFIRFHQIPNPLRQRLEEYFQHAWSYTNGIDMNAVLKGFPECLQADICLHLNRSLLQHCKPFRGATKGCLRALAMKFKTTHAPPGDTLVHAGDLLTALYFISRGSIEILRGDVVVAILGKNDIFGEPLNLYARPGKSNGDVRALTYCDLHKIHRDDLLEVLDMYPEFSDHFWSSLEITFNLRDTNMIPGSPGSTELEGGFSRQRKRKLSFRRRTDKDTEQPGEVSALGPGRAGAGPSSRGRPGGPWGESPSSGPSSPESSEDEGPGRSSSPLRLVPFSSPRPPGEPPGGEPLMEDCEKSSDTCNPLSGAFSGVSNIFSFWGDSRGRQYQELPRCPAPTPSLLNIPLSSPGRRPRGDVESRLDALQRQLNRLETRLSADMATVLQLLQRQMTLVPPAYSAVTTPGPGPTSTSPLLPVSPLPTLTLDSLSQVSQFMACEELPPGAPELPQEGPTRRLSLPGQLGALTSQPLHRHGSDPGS

**Q.** Which “hERG current change (%, negative = inhibition) at 1uM” value does the source give for `Cc1nc(-c2ccc(NC(=O)c3ccccc3C)cc2)cs1` here?
**A.** Its value is 9.37%.

**Q.** With `C/C(=N/NC(=O)c1cccs1)c1ccc(NC(=O)COc2ccc(Cl)cc2Cl)cc1` as the molecule, how does the “hERG current change (%, negative = inhibition) at 1uM” value read?
**A.** The value was 10.3%.

**Q.** With `COc1ccc(COCC(O)CN2CCOCC2)cc1OC.Cl` (centres unmarked) as the molecule, how does the “hERG current change (%, negative = inhibition) at 1uM” value read?
**A.** Its value is 11.1%.

**Q.** With `O=C1NC(c2ccncc2)C(C(=O)c2cccs2)C(O)(C(F)(F)F)N1` (centres unmarked) as the molecule, how does the “hERG current change (%, negative = inhibition) at 1uM” value read?
**A.** Its value is 5.02%.

**Q.** How did the “hERG current change (%, negative = inhibition) at 1uM” value turn out when `CCCCn1nc2cc(C(=O)NC[C@@H]3CCCO3)ccc2c1OCC` was run?
**A.** The value was 11.4%.

**Q.** For `CCOC(=O)CSc1ncnc2c1cnn2-c1ccc(C)cc1`, which “hERG current change (%, negative = inhibition) at 1uM” value is on record?
**A.** Its value is 2.31%.

**Q.** `O=C(Nc1ccccc1)C1=C[C@H](C2CC2)C[C@H](OCCCCO)O1` was tested. Which “hERG current change (%, negative = inhibition) at 1uM” value did it give?
**A.** Its value is 10.7%.

**Q.** Which “hERG current change (%, negative = inhibition) at 1uM” value does the source give for `COc1ccc(C2C(C#N)=C(N)OC3=C2C(=O)CCC3)cc1OC` (centres unmarked) here?
**A.** Its value is 14.1%.

**Q.** How did the “hERG current change (%, negative = inhibition) at 1uM” value turn out when `COc1ccc(S(=O)(=O)NCC2CCCN(C(=O)CC3CCCC3)C2)cc1` (centres unmarked) was run?
**A.** The value was 6.77%.

**Q.** `CC(C)C(CCNC(=O)CN1C(=O)c2ccccc2C1=O)c1ccco1` (centres unmarked) was tested. Which “hERG current change (%, negative = inhibition) at 1uM” value did it give?
**A.** The value was 5.86%.

**Q.** Which “hERG current change (%, negative = inhibition) at 1uM” value does the source give for `CC[C@]12CCCN3CCc4c(n(c5ccccc45)C(=O)C1)C32` (some centres unmarked) here?
**A.** The value was -50.5%.

**Q.** With `O=C(CSc1ccc(-c2ccccc2)nn1)N1CCCc2ccccc21` as the molecule, how does the “hERG current change (%, negative = inhibition) at 1uM” value read?
**A.** Its value is -2.12%.

**Q.** How did the “hERG current change (%, negative = inhibition) at 1uM” value turn out when `CC(C)c1ccc(OC(=O)NCCO)cc1` was run?
**A.** The value was -4.31%.

**Q.** With `CCn1ncc(C2=NOC(C(=O)NCc3ccc(OC)cc3)C2)c1C` (centres unmarked) as the molecule, how does the “hERG current change (%, negative = inhibition) at 1uM” value read?
**A.** Its value is 2.98%.

**Q.** For `Cc1nn(C)c(=O)c(N)c1-c1cc(-c2ccc(Cl)c(Cl)c2)n[nH]1`, which “hERG current change (%, negative = inhibition) at 1uM” value is on record?
**A.** Its value is 12.9%.

**Q.** How did the “hERG current change (%, negative = inhibition) at 1uM” value turn out when `CC(C)[C@H](NC(=O)c1ccccc1)C(=O)O` was run?
**A.** Its value is 8.29%.

**Q.** For `CCC(=O)Nc1cccc(C2=NOC3(C2)C[C@H](C(N)=O)N(C(=O)Cc2ccc([N+](=O)[O-])cc2)C3)c1` (some centres unmarked), which “hERG current change (%, negative = inhibition) at 1uM” value is on record?
**A.** Its value is 5.29%.

**Q.** `CCN(CC)CCCN1CC(=O)N2[C@@H](Cc3c([nH]c4ccccc34)C2(C)C)C1=O` was tested. Which “hERG current change (%, negative = inhibition) at 1uM” value did it give?
**A.** Its value is 15%.

**Q.** For `COc1cc(C2NC(=O)N(C)C3=C2C(=O)CCC3)cc(OC)c1OC` (centres unmarked), which “hERG current change (%, negative = inhibition) at 1uM” value is on record?
**A.** The value was 13%.

**Q.** How did the “hERG current change (%, negative = inhibition) at 1uM” value turn out when `Cc1ccc(-c2cccc(C3CC=CC4C3C(=O)N(Cc3ccccc3)C4c3cc(C)ccc3F)c2)cc1` (centres unmarked) was run?
**A.** The value was 10.8%.

**Q.** With `Cc1cccc(S(=O)(=O)NC2CCCCCCC2)c1` as the molecule, how does the “hERG current change (%, negative = inhibition) at 1uM” value read?
**A.** Its value is 4.36%.

**Q.** How did the “hERG current change (%, negative = inhibition) at 1uM” value turn out when `CCOC(=O)/C(=C/c1cn(C)c2ccccc12)NC(=O)c1ccccc1` was run?
**A.** The value was 4.49%.

**Q.** With `CC(=O)N1CCC2(CC1)C/C(=N\NC(=S)Nc1ccccc1F)c1cc(O)ccc1O2` as the molecule, how does the “hERG current change (%, negative = inhibition) at 1uM” value read?
**A.** The value was -3.39%.

**Q.** `Cc1ccc(/C=N\NC(=O)c2csnn2)cc1` was tested. Which “hERG current change (%, negative = inhibition) at 1uM” value did it give?
**A.** The value was 9.77%.

**Q.** Which “hERG current change (%, negative = inhibition) at 1uM” value does the source give for `CCCn1c(NC(=O)c2cccc(C)c2C)nc2ccccc21` here?
**A.** Its value is 8.02%.

**Q.** `O=C(COC(=O)c1cc(S(=O)(=O)N2CCCCC2)ccc1N1CCOCC1)NC1CCCCC1` was tested. Which “hERG current change (%, negative = inhibition) at 1uM” value did it give?
**A.** Its value is 16.6%.

**Q.** Which “hERG current change (%, negative = inhibition) at 1uM” value does the source give for `CCOc1cc(/C=N/NC(N)=O)ccc1OCC(=O)Nc1ccc(C)c(C)c1` here?
**A.** Its value is 6.45%.

**Q.** Which “hERG current change (%, negative = inhibition) at 1uM” value does the source give for `O=C(CCC(=O)Nc1ccc(Cl)cc1Cl)NNC(=O)[C@@H]1CCCC[C@@H]1C(=O)O` here?
**A.** Its value is 19.8%.

**Q.** Which “hERG current change (%, negative = inhibition) at 1uM” value does the source give for `CN1CCN(Cc2nc3ccccc3c(=O)[nH]2)CC1` here?
**A.** The value was 3.81%.

**Q.** With `Cc1ccc(S(=O)(=O)N(C)CC(=O)O/N=C(\N)c2cccnc2)cc1` as the molecule, how does the “hERG current change (%, negative = inhibition) at 1uM” value read?
**A.** Its value is 10.3%.

**Q.** For `COc1ccc(NC(=O)N2CCCC2C(=O)NCCc2ccccc2)cc1` (centres unmarked), which “hERG current change (%, negative = inhibition) at 1uM” value is on record?
**A.** Its value is -15.3%.

**Q.** Which “hERG current change (%, negative = inhibition) at 1uM” value does the source give for `c1ccc(OCc2cc(-c3ccccc3)no2)cc1` here?
**A.** The value was 6.55%.

**Q.** Which “hERG current change (%, negative = inhibition) at 1uM” value does the source give for `CN(C)C(=O)CN1C(=O)c2cccc3cccc1c23` here?
**A.** The value was 20.2%.

**Q.** For `COc1cccc(CNC(=O)Cn2ccc3cc(S(=O)(=O)N4CCCCCC4)ccc32)c1OC`, which “hERG current change (%, negative = inhibition) at 1uM” value is on record?
**A.** The value was 2.93%.

**Q.** For `Oc1cccc(N2Cc3ccccc3C2)c1`, which “hERG current change (%, negative = inhibition) at 1uM” value is on record?
**A.** Its value is 12.6%.

**Q.** For `CC(C)NS(=O)(=O)c1ccc(CCC(=O)N2CCc3ccccc3C2)cc1`, which “hERG current change (%, negative = inhibition) at 1uM” value is on record?
**A.** Its value is 2.08%.

**Q.** How did the “hERG current change (%, negative = inhibition) at 1uM” value turn out when `COc1ccc([N+](=O)[O-])cc1C(=O)Nc1ccc(OCC(=O)N2CCOCC2)cc1` was run?
**A.** Its value is -0.787%.

**Q.** `CC(=O)NC1=C(C#N)C(c2ccccc2)c2c(ccc3ccccc23)O1` (centres unmarked) was tested. Which “hERG current change (%, negative = inhibition) at 1uM” value did it give?
**A.** The value was 11.1%.

**Q.** For `CCCc1c(C(=O)NNc2ccc(C)cc2)cnn1-c1ccccc1`, which “hERG current change (%, negative = inhibition) at 1uM” value is on record?
**A.** Its value is 16.1%.

**Q.** With `O=C(CSc1nc(N2CCOCC2)nc(N2CCOCC2)n1)Nc1ccc(Cl)cc1Cl` as the molecule, how does the “hERG current change (%, negative = inhibition) at 1uM” value read?
**A.** Its value is 0.366%.

**Q.** Which “hERG current change (%, negative = inhibition) at 1uM” value does the source give for `COc1cc(C(c2c(C)[nH][nH]c2=O)c2c(C)[nH][nH]c2=O)ccc1OC(C)C` here?
**A.** The value was 22.1%.

**Q.** `O=C(NCc1n[nH]c(=S)n1-c1ccc(Cl)c(Cl)c1)c1ccc(S(=O)(=O)N2CCOCC2)cc1` was tested. Which “hERG current change (%, negative = inhibition) at 1uM” value did it give?
**A.** Its value is 6.59%.

**Q.** With `O=c1[nH]c(=S)n(-c2ccc(Br)cc2)c(O)c1C=Nc1ccc(N2CCOCC2)cc1` as the molecule, how does the “hERG current change (%, negative = inhibition) at 1uM” value read?
**A.** Its value is -2.16%.

**Q.** For `COCCNC(=O)c1ccc2c(=O)n(CCCN3CCCC3=O)c(=S)[nH]c2c1`, which “hERG current change (%, negative = inhibition) at 1uM” value is on record?
**A.** Its value is 8.18%.

**Q.** `COc1ccc(/C=C2\Oc3cc(OC(=O)N4CCOCC4)ccc3C2=O)c(OC)c1` was tested. Which “hERG current change (%, negative = inhibition) at 1uM” value did it give?
**A.** Its value is 13.8%.

**Q.** Which “hERG current change (%, negative = inhibition) at 1uM” value does the source give for `CCCOc1ccc(/C=N/NC(=O)C(=O)Nc2ccccn2)cc1` here?
**A.** Its value is 8.64%.

**Q.** With `CCOC(=O)c1ccc(N2CCOCC2)c(NS(=O)(=O)c2ccc(F)cc2)c1` as the molecule, how does the “hERG current change (%, negative = inhibition) at 1uM” value read?
**A.** The value was 12%.

**Q.** With `NS(=O)(=O)c1ccc(NC(=S)NCc2cccs2)cc1` as the molecule, how does the “hERG current change (%, negative = inhibition) at 1uM” value read?
**A.** The value was 10.3%.

**Q.** Which “hERG current change (%, negative = inhibition) at 1uM” value does the source give for `COc1ccc(CCN2CCCC(CN(C)Cc3cccc(OC)c3)C2)cc1` (centres unmarked) here?
**A.** Its value is 3.88%.

**Q.** For `CC(C)COC(=O)c1cc(=O)[nH]c2ccccc12`, which “hERG current change (%, negative = inhibition) at 1uM” value is on record?
**A.** The value was -3.38%.

**Q.** How did the “hERG current change (%, negative = inhibition) at 1uM” value turn out when `Cc1ccccc1OCCc1c(C)[nH]c(=S)[nH]c1=O` was run?
**A.** The value was 11.5%.

**Q.** Which “hERG current change (%, negative = inhibition) at 1uM” value does the source give for `CSC1=C(C#N)C(c2sccc2C)CC(=O)N1` (centres unmarked) here?
**A.** The value was 14.3%.

**Q.** With `COc1ccc(C(=O)COC(=O)CN2C(=O)NC3(CC(C)CC(C)(C)C3)C2=O)c(OC)c1` (centres unmarked) as the molecule, how does the “hERG current change (%, negative = inhibition) at 1uM” value read?
**A.** Its value is -8.25%.

**Q.** With `NC(CO)(CO)CO.Nc1ncnc2c1ncn2[C@@H]1O[C@H](COP(=O)(O)OP(=O)(O)OP(=O)(O)O)[C@@H](O)[C@H]1O.O` as the molecule, how does the “hERG current change (%, negative = inhibition) at 1uM” value read?
**A.** Its value is 8.81%.

**Q.** `O=C(CCl)c1ccc2c(c1)CCN2C(=O)C1CC1` was tested. Which “hERG current change (%, negative = inhibition) at 1uM” value did it give?
**A.** The value was 6.13%.

**Q.** `Nc1ccc(S(=O)(=O)Nc2ccc(Cl)nn2)cc1` was tested. Which “hERG current change (%, negative = inhibition) at 1uM” value did it give?
**A.** The value was 7.65%.
